# Reference: the supplement of paper PMC8728848
# This is one part of the list.
# B1: Clec49 (Caenorhabditis elegans) (protein)
# chain: MTRLTLLLFGLLGAATAQTCNTGGIYNEQFNRCYQYFTAPAQFSFAEQQCNLLGGHLASVQNGQENALLQSNAANSFKRSNYSDYWIGATDLETSGTWKWTDPSVTFDYSNWQLGEPQSGSDCAIQDKGDGTWSAIGCTSYRPYVCVTPVIMTATCPPITTPIPTTCPTPAPCPIKQCVPSCDQGWTYFSPTDFCYRVYHGEKFNDAEASCVLLGGHLASIHSLTENTFVNNIASCGIKEGKYEHLAWIGMRKVGQDWVWTDGTPSDYFNWAPKQPDNPKKELCVQTAPDLSHDKWYENWNNLECNEVMRAYICKKASIHN
# Assays:
# Test in all cases: glycan array binding signal (z-score within array); higher = stronger binding
# Details in all cases: glycan notation: IUPAC condensed, linker removed
# [1] = target: Gal(b1-4)GlcNAc(b1-2)[Gal(b1-4)GlcNAc(b1-4)]Man(a1-3)[GlcNAc(b1-4)][Gal(b1-4)GlcNAc(b1-2)Man(a1-6)]Man(b1-4)GlcNAc(b1-4)GlcNAc
# Outline: (§1)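 Arrays were curated from the Consortium for Functional Glycomics database, 3228 in total, and kept only where the protein sequence was available. Binding is expressed as a within-array Z-score. This score was averaged across arrays of the same protein sequence at different concentrations or buffers and across linkers, and negative values can be read as non-binding.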
# [2] = target: Gal(b1-4)GlcNAc(b1-2)[Gal(b1-4)GlcNAc(b1-4)]Man(a1-3)[GlcNAc(b1-4)][Gal(b1-4)GlcNAc(b1-2)[Gal(b1-4)GlcNAc(b1-6)]Man(a1-6)]Man(b1-4)GlcNAc(b1-4)GlcNAc
# Outline: as §1
# [3] = target: Gal(b1-4)GlcNAc(b1-2)[Gal(b1-4)GlcNAc(b1-6)]Man(a1-6)[Gal(b1-4)GlcNAc(b1-2)Man(a1-3)]Man(b1-4)GlcNAc(b1-4)GlcNAc
# Outline: as §1
# [4] = target: Gal(b1-4)GlcNAc(b1-2)[Gal(b1-4)GlcNAc(b1-6)]Man(a1-6)[Gal(b1-4)GlcNAc(b1-2)Man(a1-3)]Man(b1-4)GlcNAc(b1-4)[Fuc(a1-6)]GlcNAc
# Outline: as §1
# [5] = target: Gal(b1-4)GlcNAc(b1-2)[Gal(b1-4)GlcNAc(b1-6)]Man(a1-6)[GlcNAc(b1-4)][Gal(b1-4)GlcNAc(b1-2)Man(a1-3)]Man(b1-4)GlcNAc(b1-4)GlcNAc
# Outline: as §1
# [6] = target: Gal(b1-4)GlcNAc(b1-2)[Gal(b1-4)GlcNAc(b1-6)]Man(a1-6)[GlcNAc(b1-4)][Gal(b1-4)GlcNAc(b1-2)[Gal(b1-4)GlcNAc(b1-4)]Man(a1-3)]Man(b1-4)GlcNAc(b1-4)[Fuc(a1-6)]GlcNAc
# Outline: as §1
# [7] = target: Gal(b1-4)GlcNAc(b1-3)Gal(b1-3)GalNAc
# Outline: as §1
# [8] = target: Gal(b1-4)GlcNAc(b1-3)Gal(b1-3)GlcNAc
# Outline: as §1
# [9] = target: Gal(b1-4)GlcNAc(b1-3)Gal(b1-4)Glc
# Outline: as §1
# [10] = target: Gal(b1-4)GlcNAc(b1-3)Gal(b1-4)GlcNAc
# Outline: as §1
# [11] = target: Gal(b1-4)GlcNAc(b1-3)Gal(b1-4)GlcNAc(b1-2)Man(a1-3)[Gal(b1-4)GlcNAc(b1-3)Gal(b1-4)GlcNAc(b1-2)Man(a1-6)]Man(b1-4)GlcNAc(b1-4)GlcNAc
# Outline: as §1
# [12] = target: Gal(b1-4)GlcNAc(b1-3)Gal(b1-4)GlcNAc(b1-2)Man(a1-3)[Gal(b1-4)GlcNAc(b1-3)Gal(b1-4)GlcNAc(b1-2)Man(a1-6)]Man(b1-4)GlcNAc(b1-4)[Fuc(a1-6)]GlcNAc
# Outline: as §1
# [13] = target: Gal(b1-4)GlcNAc(b1-3)Gal(b1-4)GlcNAc(b1-2)[Gal(b1-4)GlcNAc(b1-3)Gal(b1-4)GlcNAc(b1-6)]Man(a1-6)[Gal(b1-4)GlcNAc(b1-3)Gal(b1-4)GlcNAc(b1-2)Man(a1-3)]Man(b1-4)GlcNAc(b1-4)GlcNAc
# Outline: as §1
# [14] = target: Gal(b1-4)GlcNAc(b1-3)Gal(b1-4)GlcNAc(b1-2)[Gal(b1-4)GlcNAc(b1-3)Gal(b1-4)GlcNAc(b1-6)]Man(a1-6)[Gal(b1-4)GlcNAc(b1-3)Gal(b1-4)GlcNAc(b1-2)Man(a1-3)]Man(b1-4)GlcNAc(b1-4)[Fuc(a1-6)]GlcNAc
# Outline: as §1
# [15] = target: Gal(b1-4)GlcNAc(b1-3)Gal(b1-4)GlcNAc(b1-3)Gal(b1-4)GlcNAc
# Outline: as §1
# [16] = target: Gal(b1-4)GlcNAc(b1-3)Gal(b1-4)GlcNAc(b1-3)Gal(b1-4)GlcNAc(b1-2)Man(a1-3)[Gal(b1-4)GlcNAc(b1-3)Gal(b1-4)GlcNAc(b1-3)Gal(b1-4)GlcNAc(b1-2)Man(a1-6)]Man(b1-4)GlcNAc(b1-4)GlcNAc
# Outline: as §1
# [17] = target: Gal(b1-4)GlcNAc(b1-3)Gal(b1-4)GlcNAc(b1-3)Gal(b1-4)GlcNAc(b1-2)Man(a1-3)[Gal(b1-4)GlcNAc(b1-3)Gal(b1-4)GlcNAc(b1-3)Gal(b1-4)GlcNAc(b1-2)Man(a1-6)]Man(b1-4)GlcNAc(b1-4)[Fuc(a1-6)]GlcNAc
# Outline: as §1
# [18] = target: Gal(b1-4)GlcNAc(b1-3)Gal(b1-4)GlcNAc(b1-3)Gal(b1-4)GlcNAc(b1-2)[Gal(b1-4)GlcNAc(b1-3)Gal(b1-4)GlcNAc(b1-3)Gal(b1-4)GlcNAc(b1-6)]Man(a1-6)[Gal(b1-4)GlcNAc(b1-3)Gal(b1-4)GlcNAc(b1-3)Gal(b1-4)GlcNAc(b1-2)Man(a1-3)]Man(b1-4)GlcNAc(b1-4)[Fuc(a1-6)]GlcNAc
# Outline: as §1
# [19] = target: Gal(b1-4)GlcNAc(b1-3)Gal(b1-4)GlcNAc(b1-3)Gal(b1-4)GlcNAc(b1-3)Gal(b1-4)GlcNAc(b1-2)Man(a1-3)[Gal(b1-4)GlcNAc(b1-3)Gal(b1-4)GlcNAc(b1-3)Gal(b1-4)GlcNAc(b1-3)Gal(b1-4)GlcNAc(b1-2)Man(a1-6)]Man(b1-4)GlcNAc(b1-4)GlcNAc
# Outline: as §1
binder,measurement,setting,value
B1,glycan array binding signal (z-score),[1],-0.004
same,glycan array binding signal (z-score),[2],-0.205
same,glycan array binding signal (z-score),[3],-0.312
same,glycan array binding signal (z-score),[4],0.551
same,glycan array binding signal (z-score),[5],0.081
same,glycan array binding signal (z-score),[6],-0.016
same,glycan array binding signal (z-score),[7],0.024
same,glycan array binding signal (z-score),[8],-0.158
same,glycan array binding signal (z-score),[9],0.145
same,glycan array binding signal (z-score),[10],-0.1
same,glycan array binding signal (z-score),[11],2.54
same,glycan array binding signal (z-score),[12],0.726
same,glycan array binding signal (z-score),[13],0.013
same,glycan array binding signal (z-score),[14],-0.364
same,glycan array binding signal (z-score),[15],0.409
same,glycan array binding signal (z-score),[16],2.57
same,glycan array binding signal (z-score),[17],-0.058
same,glycan array binding signal (z-score),[18],0.547
same,glycan array binding signal (z-score),[19],-0.294
